From PubChem BioAssay AID652104 (National Center for Advancing Translational Sciences (NCATS), 2013)
Screen size: about 410,000 compounds; about 7,200 (1.8%) were called active. This list was built around the results that the source calls inconclusive (neither active nor inactive); the mix of calls is not that of the screen. The call rests on the fitted dose curve; in most records, active means well fitted activation curve with a large enough effect; inconclusive means small, poorly fitted or top-dose-only effect, or another doubt; inactive means no such curve, though single readings can be large or run the other way. Potencies of inconclusive entries are left out as doubtful fits.

experiment: qHTS of TDP-43 Inhibitors; conditions: TDP-43 expressing yeast growth rescue, BacTiter-Glo, 24 h; growth rescue (activation): at 46.1 µM (top of the series) unless noted; further: nearly all actives have a fitted effect of over 50% in size; on growth rescue (activation): % of control where 0% means no effect
Summary of the method: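 In this qHTS, compounds that restore growth of yeast expressing TDP-43 appear as activators. Cells (OD600=0.02, galactose medium, raffinose-pregrown) are incubated with compound 24 hr at 30 deg C and growth is quantified by BacTiter-Glo.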
Potency means the concentration at half of the fitted maximal effect; tags describe the fitted curve by direction and shape.

Compound	Potency	growth rescue (activation)
Cc1ccc(NC(=O)Nc2cccs2)c(Cl)c1	active: 12.6 µM	–
O=C(Nc1c2c(nn1-c1ccc(F)cc1)CSC2)c1ccc(S(=O)(=O)N2CCOCC2)cc1	–	inactive: -3.03%
COC(=O)c1cc(=O)n(-c2ccc(F)cc2)c(=Nc2ccc(F)cc2)s1	inconclusive [activator, single point]	–
NC(=O)C1CCN(CC(=O)Nc2ccc3c(c2)OCO3)CC1	inconclusive [activator, single point]	–
Cc1cc(C(=O)Nc2c(F)cc(F)cc2Br)cs1	active: 12.6 µM	–
CCSc1nnc(NC(=O)CCNS(=O)(=O)c2ccccc2F)s1	–	inactive: -2.48%
CC(=O)Nc1ccc(Nc2cc(C)nc(Nc3ccc(NC(C)=O)cc3)n2)cc1	inconclusive [activator, partial curve, poor fit]	–
COc1ccc(/C(C)=N/Nc2nc(C)c(C(C)=O)s2)cc1	inconclusive [activator, partial curve]	–
COC(=O)c1ccc(N2CCN(CC(=O)c3ccc(-c4ccccc4)cc3)CC2)c([N+](=O)[O-])c1	inconclusive [activator, single point]	–
CCn1c(SCC(=O)Nc2ccc3c(c2)OCCO3)nc2c(c1=O)SC(C)C2 (stereo unspecified)	–	inactive: -11.8%
NNC(=O)c1oc2nc(-c3ccccc3)cc(-c3ccccc3)c2c1N	inconclusive [activator, single point]	–
CCOC(=O)c1nn(-c2ccc(C)cc2)cc1C(=O)c1ccccc1	active: 12.6 µM	–
COCCN(Cc1cn(C)nc1-c1ccccc1F)C(C)C	–	inactive: -24%
COC(=O)c1cc(NC(=O)c2sc3ncn(Cc4cccc(F)c4)c(=O)c3c2C)cc(C(=O)OC)c1	inconclusive [activator, single point]	–
Cc1ccccc1-n1nc(C)c2cc(C(=O)NC3CC3)sc21	inconclusive [activator, partial curve]	–
CCC1CCCCN1C(=O)c1ccc2c(c1)C(=O)N(c1ccc(C)cc1)C2=O (stereo unspecified)	inconclusive [activator, partial curve, poor fit]	–
COC(=O)C1=C2c3[nH]c4ccccc4c3CCN2C(=O)CC1	active: 10 µM	–
Cc1cc(-c2nnc(SCC(=O)Nc3ccccc3C(F)(F)F)o2)c(C)n1-c1ccccc1	inconclusive [activator, partial curve, poor fit]	–
O=C(Nc1ccccc1)c1nc2ccccc2s1	–	inactive: -4.76% [at 0.397 µM]
Cc1nn(C)cc1/C=N/NC(=S)Nc1ccc(Cl)cc1Cl	inconclusive [activator, partial curve]	–
Cc1ccc(/C=C/C(=O)O)cc1S(=O)(=O)Nc1ccc2c(c1)OCO2	–	inactive: 0.316%
O=C(COc1nsnc1N1CCOCC1)Nc1cccc(Cl)c1	inconclusive [activator, partial curve]	–
Cc1ccc(C)c(N2CCN(C(=O)CCn3c(=O)c4cccn4c4cccnc43)CC2)c1	inconclusive [activator, single point]	–
Cc1ccccc1CN1CCc2c(OCC(=O)N3CCCc4ccccc43)cccc2C1=O	active: 12.6 µM	–

Compound	Potency	growth rescue (activation)
O=C(NCc1ccccc1)c1nc2ccccc2s1	active: 22.4 µM	–
O=S1(=O)Nc2c(ccc3cccnc23)-c2ccccc21	–	inconclusive: -91.3% [activator]
C/C(=N\Nc1ccc([N+](=O)[O-])cc1)c1cccc(N)c1	active: 14.1 µM	–
COc1ccc(CNC(=O)C2CCN(c3nc4ccc(C)cc4[nH]3)CC2)cc1	–	inactive: 16.4%
O=C(COc1c(F)c(F)cc(F)c1F)NC(=O)NC1CCCC1	inconclusive [activator, single point]	–
C=C(C)CSc1nc2sc3c(c2c(=O)n1CCCC)CCCC3	–	inactive: 10.5%
CCN1C(C(=O)c2ccccc2)=C(OC(=O)C(C)C)c2ccccc2S1(=O)=O	active: 17.8 µM	–
CCCCOC(=O)Nc1nc(C)c(C(=O)OCC)s1	inconclusive [activator, partial curve]	–
COc1ccc(S(=O)(=O)NCc2ccc3c(c2)OCO3)cc1C	inconclusive [activator, single point]	–
Cc1cc([N+](=O)[O-])ccc1NC(=S)NC(=O)Cc1ccccc1	inconclusive [activator, single point]	–
Cn1c(N)nc(N)c(NC=O)c1=O	inconclusive [activator, partial curve]	–
O=C(O)CCn1c(-c2ccccc2)cc2ccccc21	inconclusive [activator, single point]	–
CCc1nnc2n1N=C(c1ccc(Cl)cc1)CS2	inconclusive [activator, single point]	–
COC(=O)c1ccsc1NC(=O)CN1C(=O)CCC1=O	inconclusive [activator, single point]	–
Cc1cccc(N2CCN(C(=O)CCCn3c(=O)c4cccn4c4cccnc43)CC2)c1C	inconclusive [activator, single point]	–
CCCn1c(SCC(O)c2cccc(OC)c2)nc2ccccc21 (stereo unspecified)	inconclusive [activator, partial curve]	–
COCCCN=C1NN=C(c2cc(C)n(-c3ccccc3F)c2C)CS1	–	inactive: -6.4%
CSc1ccc(/C=C/C(=O)OCC(=O)NC(C)C)cc1	inconclusive [activator, single point]	–
NC(=O)CC(NC(=O)c1ccc(Br)cc1)c1ccc(NC2CCCCCCC2)c([N+](=O)[O-])c1 (stereo unspecified)	inconclusive [activator, full curve, poor fit]	–
O=[N+]([O-])c1cncc([N+](=O)[O-])c1Nc1cccc(O)c1	inconclusive [activator, partial curve]	–
Cc1cccc(/C(N)=N/OC(=O)CCCc2ccccc2)c1	inconclusive [activator, single point]	–
CCOc1ccc(CNC(=O)C2CCCN(S(=O)(=O)c3ccc4c(c3)CCCC(=O)N4)C2)cc1 (stereo unspecified)	–	inactive: 3.29%
COc1cccc(C2C(C#N)=C(N)N(c3ncn[nH]3)C3=C2C(=O)CCC3)c1 (stereo unspecified)	–	inactive: -13%
CC(C)CCNC(=O)CSc1c2c(nc3ccc(Cl)cc13)CCCC2	inconclusive [activator, partial curve]	–

Compound	Potency	growth rescue (activation)
CC(C)Oc1ccc(CNC(=O)Cn2c(=O)oc3ccccc32)cc1	inconclusive [activator, single point]	–
COc1ccc(C2NC(c3ccc(OC)cc3)C([N+](=O)[O-])C(C)(C)C2[N+](=O)[O-])cc1 (stereo unspecified)	inconclusive [activator, partial curve]	–
CC1=CC(C)C2C(=O)N(O)C(=O)C2C1 (stereo unspecified)	–	inactive: 6.07%
CCN(CC)C(=O)c1sc2c(c1C)c(=O)n(-c1ccccc1)c(=O)n2Cc1cc(=O)n2ccccc2n1	inconclusive [activator, partial curve]	–
Cc1cccc(C)c1-c1ccc(CN2C(CC(C)C)C(=O)N(Cc3cn(CCO)nn3)CCS2(=O)=O)cc1 (stereo unspecified)	inconclusive [activator, full curve, poor fit]	–
C[C@@H]1C=CC(=O)O[C@@H]1c1ccc(Cl)cc1	active: 12.6 µM	–
COc1ccc(C=C(c2nc3ccccc3s2)c2nc3ccccc3s2)cc1O	inconclusive [activator, single point]	–
S=c1[nH]c2cc(-c3ccccc3)ccc2o1	inconclusive [activator, single point]	–
COc1ccc(C2C3=C(CCCC3=O)Nc3nc(C(F)(F)F)nn32)c(OC)c1OC (stereo unspecified)	–	inactive: 1.62%
CCCCOC(=O)CCn1c(=S)oc2ccccc21	inconclusive [activator, partial curve]	–
COc1ccc(CNC(=O)c2cccc3c(-c4ccc(F)c(F)c4)coc23)cc1OC	inconclusive [activator, partial curve]	–
Cc1ccc(S(=O)(=O)Nc2ccc3c(c2)CCC3)cc1	inconclusive [activator, single point]	–
Cc1cc(SCC(=O)OCC(=O)N(CCC#N)c2ccccc2)nc2ccccc12	inconclusive [activator, single point]	–
Cc1c(C(=O)Nc2ccc(N3CCOCC3)cc2)oc2ccccc12	active: 7.94 µM	–
CCOc1ccc(CNC(=O)c2cnc3sc(N(CC)CC)nn3c2=O)cc1OC	–	inactive: 15.7%
O=c1[nH]c(/C=C/c2ccc(OC(F)F)cc2)nc2c1cnn2-c1ccccc1	inconclusive [activator, full curve, poor fit]	–
CCCn1c(CCC(=O)Nc2cc(Cl)c(OC)cc2OC)nc2cccnc21	–	inactive: 21.4%
COC(=O)C1=C(C)N(c2ccc(C)cc2)/C(=C/c2cccs2)C1=O	inconclusive [activator, partial curve]	–
N#CC1=C(N)OC(c2ccccc2)=C(C#N)C1c1ccc2c(c1)OCO2 (stereo unspecified)	–	inconclusive: -83.5% [activator]
COc1ccc(-c2noc(CCC(=O)N3CCN(c4ccccc4Br)CC3)n2)cc1	inconclusive [activator, single point]	–
CC1CC1C(=O)Nc1nc(-c2ccccc2)cs1 (stereo unspecified)	active: 17.8 µM	–
CN1C[C@@H](CO)O[C@@H](n2cnc3c(N4CCOCC4)ncnc32)C1	inconclusive [activator, full curve, poor fit]	–
Cc1oc(-c2ccccc2Cl)nc1CS(=O)CC(=O)N1CCN(c2ccccc2)CC1 (stereo unspecified)	inconclusive [activator, partial curve, poor fit]	–
